The whole screen tested about 39,000 compounds, of which about 220 (0.56%) showed activity. The list shows a part of the results.
These compounds were tested on Escherichia coli K-12 BW25113 (assay: relative growth (OD600 normalised to plate interquartile mean) (fraction); higher = less growth inhibition, active = 0.2 or less). Details: 50 µM; LB; incubation time: overnight (16-24 h).
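Note: static incubation at 37 °C against the wild-type strain, values averaged over two biological replicates.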

Structure (SMILES) | relative growth
C[C@H]1CN([C@@H](C)CO)C(=O)Cc2cc(NC(=O)Nc3ccc(F)cc3)ccc2O[C@H]1CN(C)C(=O)Nc1cccc2ccccc12 | inactive: 0.958
C[C@@H]1CCCCO[C@H](CN(C)S(C)(=O)=O)[C@@H](C)CN([C@@H](C)CO)C(=O)c2cc(NC(=O)c3ccncc3)ccc2O1 | inactive: 1.02
COc1cccc(NC(=O)N(C)C[C@H]2Oc3ncc(C#Cc4ccncc4)cc3C(=O)N([C@@H](C)CO)C[C@@H]2C)c1 | inactive: 0.996
O=C(c1ccncc1)N1C[C@@H]2[C@H](c3ccccc31)[C@H](CO)N2C(=O)CN1CCOCC1 | inactive: 1
CCC(=O)N1C[C@]2(CN(C2)C(=O)CN2CCOCC2)c2c([nH]c3cc(ccc23)OC)[C@@H]1CO | inactive: 1.01
C[C@H](CO)N1C[C@H](C)[C@@H](CN(C)Cc2ccc(C(=O)O)cc2)Oc2ccc(NC(=O)C3CC3)cc2C1=O | inactive: 0.996
CN(CCO)c1ccccn1 | inactive: 0.987
Cc1ccc(S(=O)(=O)Nc2ccc3c(c2)C(=O)N([C@H](C)CO)C[C@@H](C)[C@H](CN(C)S(=O)(=O)c2ccc(C)cc2)OCCCC[C@H](C)O3)cc1 | inactive: 0.988
C[C@H](CO)N1C[C@H](C)[C@@H](CN(C)S(=O)(=O)c2cn(C)cn2)Oc2ccc(NS(=O)(=O)c3ccccc3)cc2CC1=O | inactive: 1
COCC#Cc1cnc2c(c1)C(=O)N([C@@H](C)CO)C[C@H](C)[C@H](CN(C)C(C)=O)O2 | inactive: 0.97
COc1ccc(-c2cc(=O)c3c(OC)c(OC)c(OC)c(OC)c3o2)cc1OC | inactive: 0.834
C[C@@H]1CN([C@@H](C)CO)C(=O)Cc2cc(NC(=O)Nc3ccc(F)cc3)ccc2O[C@@H]1CN(C)CC1CCCCC1 | inactive: 0.967
C[C@@H]1CN([C@@H](C)CO)C(=O)c2cc(NS(=O)(=O)c3cccs3)ccc2O[C@@H](C)CCCCO[C@@H]1CN(C)C(=O)c1ccccc1 | inactive: 1.01
COc1ccc(S(=O)(=O)Nc2ccc3c(c2)CC(=O)N([C@H](C)CO)C[C@H](C)[C@H](CN(C)S(=O)(=O)c2cn(C)cn2)O3)cc1 | inactive: 0.971
C[C@@H]1CN([C@@H](C)CO)C(=O)Cc2cc(NS(=O)(=O)c3cn(C)cn3)ccc2O[C@@H]1CN(C)S(=O)(=O)c1ccc(Cl)cc1 | inactive: 0.984
COCC(=O)Nc1ccc2c(c1)C(=O)N(C)[C@@H]1CC[C@H](CC(=O)NC3Cc4ccccc4C3)O[C@@H]1CO2 | inactive: 1.03
Cc1ccc(S(=O)(=O)Nc2ccc3c(c2)C(=O)N([C@@H](C)CO)C[C@H](C)[C@@H](CN(C)Cc2ccncc2)OCCCC[C@H](C)O3)cc1 | inactive: 0.98
